Reference: US4447445A (priority 1983, dated 1984)

Key:
mice [1] = test: animal or person; settings: for ED50: Mus musculus, sc, 0.5 h
Description: Test compound is injected subcutaneously into mice. After 30 minutes, phenylquinone is injected intra-peritoneally to cause pain as indicated by writhing. Absence of or a statistically significant decrease in writhing is considered evidence of analgesia [Hendershot, L. C. and G. Forsaith, Pharmacol. Exp. Ther. 125, 237 (1959)].

mice [2] = settings: mouse, in vivo
[3] = tested on: PMA induced inflammation of mouse ears; test: PMA Mouse Ear Anti-Inflammatory Assay; assay type: in vivo; settings: Table I dose response studies
Description: Test compound and phorbol myristate acetate (PMA) or arachidonic acid (ARA) are topically applied simultaneously to the left ears of mice. Three hours 20 minutes (or one hour for ARA) after application, the mouse is sacrificed, left and right ears removed and standard sized bores taken. Edema (inflammation) is measured as the difference in weight between left and right ears [Van Arman, C. G., Clin. Pharmacol. Ther. 16, 900-904 (1974)].

| SMILES | ED50 (mice [1]; read-out: ED50 (analgesia)) | Blood Analysis wbc, figure in brackets (difference to control) (mice [2]) | Blood Analysis wbc, mean (mice [2]) | Body Weight day 0, figure in brackets (difference to control) (mice [2]) | Body Weight day 0, mean (mice [2]) | Body Weight day 7, figure in brackets (difference to control) (mice [2]) | Body Weight day 7, mean (mice [2]) | Food Consumption, figure in brackets (difference to control) (mice [2]) | Food Consumption, mean (mice [2]) | H2 O Consumption, figure in brackets (difference to control) (mice [2]) | H2 O Consumption, mean (mice [2]) | Organ Wts Adrenal, figure in brackets (difference to control) (mice [2]) | Organ Wts Adrenal, mean (mice [2]) | Organ Wts Heart, figure in brackets (difference to control) (mice [2]) | Organ Wts Heart, mean (mice [2]) | Organ Wts Kidney, figure in brackets (difference to control) (mice [2]) | Organ Wts Kidney, mean (mice [2]) | Organ Wts Liver, mean (mice [2]) | Organ Wts Spleen, figure in brackets (difference to control) (mice [2]) | Organ Wts Spleen, mean (mice [2]) | other results |
| --- | --- | --- | --- | --- | --- | --- | --- | --- | --- | --- | --- | --- | --- | --- | --- | --- | --- | --- | --- | --- | --- |
| CN1CC[C@]23c4c5ccc(O)c4O[C@H]2[C@@H](O)C=C[C@H]3[C@H]1C5 [morphine, reference compound] | ~0.6 mg/kg |  |  |  |  |  |  |  |  |  |  |  |  |  |  |  |  |  |  |  |  |
| C[C@]12CCC(=O)C=C1CC[C@@H]1[C@@H]2[C@@H](O)C[C@@]2(C)[C@H]1CC[C@]2(O)C(=O)CO [Hydrocortisone, hydrocortisone, reference compound] |  | +71.0 | 2850 | +1.1 | 18.1 g | -13.2 | 22.3 g | +13.6 | 6.69 | +21.0 | 9.8 | -20.9 | 11.01 | +32.4 | 0.56 | 15.8 | 1.63 | 5.67 | -63.8 | 0.17 | Organ Wts Testes, figure in brackets (difference to control) (mice [2]): +18.1; Organ Wts Testes, mean (mice [2]): 0.62; Organ Wts Thymus, figure in brackets (difference to control) (mice [2]): -81.6; Organ Wts Thymus, mean (mice [2]): 0.08; effect on adrenal gland weight (mice [2]): reduction of adrenal gland, spleen weights and body weight; effect on body weight (mice [2]): reduction of adrenal gland, spleen weights and body weight; effect on spleen (mice [2]): reduction of adrenal gland, spleen weights and body weight; effect on thymus weight and size (mice [2]): expected thymus involution; increase in white blood cell count over control (mice [2]): did not |
| CC1=C(CC/C(C)=C/CCC2=CCC(C3=CC(=O)OC3O)OC2O)C(C)(C)CCC1 (centres unmarked) [Manoalide] | ~40 mg/kg | +381.4 | 8025 | +2.2 | 18.3 g | +2.3 | 26.3 g | -7.1 | 5.47 | -25.7 | 6.1 ml/mouse/day | +32.3 | 18.41 | -17.7 | 0.35 | -9.2 | 1.28 | 6.32 | +71.7 | 0.83 | Acute Inflamation with PMA, figure in brackets (difference to control) (mice [2]): +14.8; Acute Inflamation with PMA, mean (mice [2]): 15.5 mg; Eight day administration: glucocorticoid (steroid-like) properties (mice [2]): no glucocorticoid; Eight day administration: toxicity (remark) (mice [2]): Non-toxic; Organ Wts Liver, figure in brackets (difference to control) (mice [2]): +8.9; Organ Wts Testes, figure in brackets (difference to control) (mice [2]): -6.5; Organ Wts Testes, mean (mice [2]): 0.49; Organ Wts Thymus, figure in brackets (difference to control) (mice [2]): -18.4; Organ Wts Thymus, mean (mice [2]): 0.37; effect on adrenal gland weight (mice [2]): did not alter adrenal gland weight; effect on body weight (mice [2]): grew to normal body weight; effect on spleen (mice [2]): markedly enlarged the spleen; effect on thymus weight and size (mice [2]): only slightly decreased thymus weight and size; healing of injection wound sites (acutely immunosuppressive) (mice [2]): injection wound sites did not heal; increase in white blood cell count over control (mice [2]): 400%; ED50 (mice [1]; read-out: Analgesia (Phenylquinone Writhing) ED50): 40 mg/kg; time of peak analgesic effect after administration (mice [1]; mouse, in vivo): about two; PMA - Mouse Ear Anti-inflammatory ED50 [3]: 40 microgram/ear |
| COc1ccc2c(c1)c(CC(=O)O)c(C)n2C(=O)c1ccc(Cl)cc1 [Indomethacin, indomethacin, reference compound] | ~5 mg/kg |  |  |  |  |  |  |  |  |  |  |  |  |  |  |  |  |  |  |  |  |

Like-named read-outs stand apart in the source and are kept apart here.
